Data reported in PubChem BioAssay (NCI).
Values joined by “and” are separate entries in the source; they are usually repeats but may differ in a detail not shown here. Identical values can stand only once.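 96-well plates; 48 h exposure; 5 concentrations. Endpoints by linear interpolation between flanking doses. Not reached: highest tested concentration assigned. GI50 = concentration required for 50% inhibition of growth. Definition used: TGI = concentration required for complete inhibition of growth.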 Square brackets hold non-standard residues; d marks the D form. Peptide text beside a SMILES is read from it. * marks the point of attachment. X23 = COC1=CC(=O)N(C(=O)[C@@H](O*)C(C)C)[C@H]1Cc1ccccc1; Bn2Val = CC(C)[C@@H](C(=O)*)N(Cc1ccccc1)Cc1ccccc1; NMeV = CN[C@H](C(=O)O)C(C)C; dNMeA = CN[C@H](C)C(=O)O

Each compound was assayed on NCI-H322M lung (assay: growth of human tumour cells (NCI), 48 h).

Compound	TGI	GI50
Nc1ccc2nc(Nc3ccc(Cl)c(Cl)c3)cnc2c1	58.6 µM	
C#CCN(N=O)C(=O)NCCCCC(NC(=O)OCc1ccccc1)C(=O)OCc1ccccc1 (stereo unspecified)	> 100 µM	
CSC(=Nc1ccccc1Cl)NC(=O)c1ccc(Br)cc1	> 100 µM	
O=C1CSC(c2ccc(-c3nc4ccccc4[nH]3)cc2)=N1	> 50 µM	> 50 µM
S=c1nc(C(c2ccccc2)c2ccccc2)[nH][nH]1	> 100 µM	
Cc1ccc(S(=O)(=O)NC(=O)NCCc2ccc(O)c(O)c2)cc1	> 100 µM	
CSc1c2c(C)n[nH]c2nn1-c1ccccc1	> 100 µM	
CCO/C(CCn1[nH]c(=O)c(Cl)c(Cl)c1=O)=N\NC(=O)C(=O)NN	> 100 µM	
O=C(Nc1cc(Cl)ccc1Cl)c1cc2cccc(Br)c2oc1=O	> 100 µM	
COc1ccc2c3c(c(C(=O)O)oc13)CCC2	> 100 µM	
COC1CC(C)C(OC)c2cc(O)cc(c2O)NC(=O)/C(C)=C/C=C\C(C)C(OC(N)=O)/C(C)=C\C(C)C1OC (stereo unspecified)	27.6 µM and 22.8 µM	0.862 µM and 2.48 µM
COc1ccc(OC)c(NC2=NCCO2)c1	> 100 µM	
Oc1[nH]c(N=C2N=c3ccccc3=N2)c2ccccc12	48.3 µM	11.1 µM
CCCN(CCC)CCc1cc(C(C)=O)n(S(=O)(=O)c2ccc(C)cc2)c1	> 100 µM	
Cc1c(N)nc([C@H](CC(N)=O)NC[C@H](N)C(N)=O)nc1C(=O)N[C@H](C(=O)N[C@H](C)[C@@H](O)CC(=O)N[C@H](C(=O)NC(O[C@@H]1O[C@@H](C)[C@@H](N)[C@@H](O)[C@H]1O)C(O)c1nc(-c2nc(C(=O)NCCCCN)cs2)cs1)[C@@H](C)O)[C@@H](O[C@@H]1O[C@@H](CO)[C@@H](O)[C@H](O)[C@@H]1O[C@H]1O[C@H](CO)[C@@H](O)[C@H](OC(N)=O)[C@@H]1O)c1c[nH]cn1 (stereo partly specified)	> 50 µM	
Nc1ncn(C2OC(COP(=O)(O)O)C(O)C2O)c(=O)n1 (stereo unspecified)	> 100 µM	
Fc1ccc2[nH]cc(-c3nc(-c4c[nH]c5ccncc45)cs3)c2c1	2.87 µM	1.52 µM
O=C1C=C2C=CC3CC2(O1)C1CCCCN31 (stereo unspecified)	86.8 µM and 81.4 µM and > 100 µM	23.7 µM and 22.2 µM and 54.9 µM
C=C1C(=O)O[C@H]2[C@H]1CC/C(Cn1cc(Cc3c[nH]c4ccccc34)nn1)=C\CC[C@@]1(C)O[C@@H]21	20.9 µM	8.63 µM
COC(=O)[C@@H]1[C@H](O)CCC2=C(CC(=O)c3ccoc3)[C@H](C)CC[C@]21C	> 50 µM	
O=C(O)CNc1ccc(Cl)c(Cl)c1	87 µM	
C/C=C/c1cc2c(c(=O)o1)C(=O)[C@@H](O)[C@H](C)O2	48.2 µM	

Compound	TGI	GI50
CC(=O)O[C@@]12CO[C@@H]1C[C@H](O)[C@@]1(C)C(=O)[C@H](O)C3=C(C)[C@@H](OC(=O)[C@H](O)[C@@H](NC(=O)OC(C)(C)C)c4ccccc4)C[C@@](O)([C@@H](OC(=O)c4ccccc4)C12)C3(C)C (stereo partly specified)	> 100 µM	
COc1cccc(-n2ncc3c(N/N=C/c4ccc(C)cc4)ncnc32)c1	> 25 µM	> 25 µM
Oc1cc(O)c2c(c1)O[C@H](c1cc(O)c(O)c(O)c1)[C@@H](O)C2	> 100 µM	
C[N+](C)(C)CCOC(=O)/C=C/c1cnc[nH]1	> 500 µM	
CC(=Nc1ccccc1)C1=C(O)C(Cc2cccc(F)c2)NC1=O (stereo unspecified)	> 100 µM	0.0796 µM
COC12C=C/C(=C(/C(=O)OCCSc3ccnn3C)C(=O)CCCCCCCCC3(OC)C=C/C(=C(/C(=O)OCCSc4ccnn4C)C(=O)CCCCCCCC1)O3)O2	> 32.5 µM	1.63 µM
COC1=CC(=O)C(Br)=CC1=O	> 100 µM	
NCCOCn1cc(Cc2cccc(OCc3ccccc3)c2)c(=O)[nH]c1=O	> 100 µM	
Cc1cc2c(cc1C)[n+](=O)c(C(=O)/C=C/c1ccc3c(c1)OCO3)c(C)n2[O-]	> 100 µM	
Clc1ccc2nc3n[nH]c(Cl)c3nc2c1	> 100 µM	
Brc1c2nc3ccccc3nc2n2ccc3ccccc3c12	> 100 µM	
O=C(NNS(=O)(=O)c1ccc(Br)cc1)c1ccc(Cl)cc1NC(=O)C12CC3CC(CC(C3)C1)C2	39.2 µM	
N/C(=N\NC(=O)c1nc2ccccc2s1)c1ccccn1	> 52.4 µM	
c1ccc(C(c2cccc3c2ccc2ccccc23)C(c2ccccc2)c2cccc3c2ccc2ccccc23)cc1 (stereo unspecified)	> 100 µM	
Cn1cc(-c2nc(-c3c[nH]c4ccncc34)cs2)c2ccccc21	3.07 µM	1.67 µM
COc1ccc(OC)c(NC(=O)c2cccc(NC3=C(Cl)C(=O)N(Cc4ccccc4)C3=O)c2)c1	> 100 µM	> 100 µM
CCN(CC)CCCOc1ccc2ncnc(Nc3ccc(Oc4cccc(C(F)(F)F)c4)c(Cl)c3)c2c1	2.46 µM	1.21 µM
C=C1C(=O)[C@]23C[C@H]1C[C@@H](O)[C@H]2[C@]1(COC3=O)[C@@H](OC(C)=O)CC[C@@](C)(COC(C)=O)[C@H]1C=O	> 50 µM	
COCCOC(C)C(=O)C(O)S(=O)(=O)O (stereo unspecified)	> 100 µM	
COC1=CC(=O)N(C(=O)[C@@H](OC(=O)[C@@H](C)N(C)C(=O)[C@@H]2CCCN2C(=O)[C@H](C(C)C)N(C)C(=O)[C@@H](NC(=O)[C@H](C(C)C)N(Cc2ccccc2)Cc2ccccc2)C(C)C)C(C)C)[C@H]1Cc1ccccc1 (Bn2Val-V[NMeV]P[dNMeA]-X23)	> 100 µM	
C=C1C(=O)O[C@H]2[C@H]1CC/C(COC(=O)c1cn(C)c3ccccc13)=C\CC[C@@]1(C)O[C@@H]21	11.4 µM	3.01 µM
